Reference: the supplement of paper PMC4967469

What was measured:
Assay in all cases: Viability of human cancer cell lines after 72 h of drug (GDSC screen)
[1] = compound: CC(C)(C)OC(=O)Nc1ccc(-c2cc(C(=O)NCCCCCCC(=O)NO)no2)cc1 [CAY10603]; conditions: top dose 20 µM; top dose inferred
Procedure: (§1)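 Human cancer cell lines in 384-well plates, medium with 10% serum, drug for 72 h over a 256-fold dose range (nine 2-fold or five 4-fold steps up to the top dose). Adherent lines were fixed and stained with the nucleic acid dye Syto60, suspension lines read with resazurin; signal relative to control wells, capped at 0 and 100%. One two-parameter sigmoid per drug and line, fitted in a mixed model over all curves with the slope shared within a line.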

[2] = compound: N#Cc1c(C2CCNCC2)cc(-c2c(O)cccc2OCC2CC2)nc1N [ACHP (KIN001-260)]; conditions: top dose 20 µM; top dose inferred
Procedure: as §1

[3] = compound: CCc1cc2c(cc1N1CCC(N3CCOCC3)CC1)C(C)(C)c1[nH]c3cc(C#N)ccc3c1C2=O [CH5424802]; conditions: top dose 5.12 µM; top dose inferred
Procedure: as §1

Cell Line | AUC [1] | IC50 [1] | AUC [2] | IC50 [2] | AUC [3] | IC50 [3]
HCC70 (breast, adherent) | 0.452 | 0.928 µM | 0.979 | > 20 µM | 0.931 | > 5.12 µM
COR-L303 (small cell lung carcinoma, suspension) | 0.256 | 0.258 µM | 0.956 | > 20 µM | 0.906 | > 5.12 µM
LNZTA3WT4 (glioma, adherent) | 0.794 | 9.02 µM | 0.968 | > 20 µM | 0.987 | > 5.12 µM
KU812 (chronic myeloid leukaemia, suspension) | 0.025 | < 0.0781 µM | 0.148 | 0.117 µM | 0.988 | > 5.12 µM
201T (lung adenocarcinoma, adherent) | 0.828 | 16.9 µM | 0.965 | > 20 µM | 0.976 | > 5.12 µM
5637 (bladder, adherent) | 0.362 | 0.541 µM | 0.97 | > 20 µM | 0.987 | > 5.12 µM
MKN45 (stomach, adherent) | 0.891 | > 20 µM | 0.978 | > 20 µM | 0.981 | > 5.12 µM
IGR-37 (melanoma, adherent) | 0.51 | 1.33 µM | 0.95 | > 20 µM | 0.989 | > 5.12 µM
Ramos-2G6-4C10 (Burkitt lymphoma, suspension) | 0.313 | 0.408 µM | 0.914 | > 20 µM | 0.975 | > 5.12 µM
SK-HEP-1 (liver, adherent) | 0.634 | 2.86 µM | 0.985 | > 20 µM | 0.988 | > 5.12 µM
TE-15 (oesophagus, suspension) | 0.44 | 0.838 µM | 0.913 | > 20 µM | 0.979 | > 5.12 µM
PCI-15A (head and neck, adherent) | 0.979 | > 20 µM | 0.975 | > 20 µM | 0.984 | > 5.12 µM
BB30-HNC (head and neck, adherent) | 0.618 | 2.62 µM | 0.978 | > 20 µM | 0.973 | > 5.12 µM
OE19 (oesophagus, adherent) | 0.923 | > 20 µM | 0.986 | > 20 µM | 0.982 | > 5.12 µM
DSH1 (bladder, adherent) | 0.499 | 1.24 µM | 0.989 | > 20 µM | 0.989 | > 5.12 µM
PSN1 (pancreas, adherent) | 0.269 | 0.314 µM | 0.947 | > 20 µM | 0.988 | > 5.12 µM
NCI-H2009 (lung adenocarcinoma, adherent) | 0.858 | 18 µM | 0.978 | > 20 µM | 0.985 | > 5.12 µM
SW1463 (large intestine, adherent) | 0.857 | > 20 µM | 0.978 | > 20 µM | 0.977 | > 5.12 µM
NU-DUL-1 (B-cell lymphoma, suspension) | 0.193 | 0.196 µM | 0.632 | 2.66 µM | 0.971 | > 5.12 µM

Cell Line | AUC [1] | IC50 [1] | AUC [2] | IC50 [2] | AUC [3] | IC50 [3]
IPC-298 (melanoma, adherent) | 0.427 | 0.793 µM | 0.951 | > 20 µM | 0.981 | > 5.12 µM
SW13 (adrenal gland, adherent) | 0.984 | > 20 µM | 0.987 | > 20 µM | 0.988 | > 5.12 µM
HCC-44 (lung adenocarcinoma, adherent) | 0.386 | 0.614 µM | 0.905 | > 20 µM | 0.98 | > 5.12 µM
HL-60 (acute myeloid leukaemia, suspension) | 0.368 | 0.564 µM | 0.956 | > 20 µM | 0.989 | > 5.12 µM
NCI-H2452 (mesothelioma, adherent) | 0.921 | > 20 µM | 0.984 | > 20 µM | 0.984 | > 5.12 µM
DU-4475 (breast, suspension) | 0.52 | 1.4 µM | 0.963 | > 20 µM | 0.992 | > 5.12 µM
D-502MG (glioma, adherent) | 0.643 | 3.87 µM | 0.967 | > 20 µM | 0.971 | > 5.12 µM
CAL-85-1 (breast, adherent) | 0.712 | 5.98 µM | 0.92 | > 20 µM | 0.869 | > 5.12 µM
NCI-H1703 (lung adenocarcinoma, adherent) | 0.86 | > 20 µM | 0.98 | > 20 µM | 0.979 | > 5.12 µM
NUGC-3 (stomach, adherent) | 0.655 | 3.56 µM | 0.984 | > 20 µM | 0.984 | > 5.12 µM
NCI-H69 (small cell lung carcinoma, suspension) | 0.622 | 2.82 µM | 0.983 | > 20 µM | 0.984 | > 5.12 µM
NCI-H1693 (lung adenocarcinoma, adherent) | 0.582 | 2.39 µM | 0.974 | > 20 µM | 0.963 | > 5.12 µM
SW780 (bladder, adherent) | 0.921 | > 20 µM | 0.986 | > 20 µM | 0.986 | > 5.12 µM
MDA-MB-436 (breast, adherent) | 0.722 | 6.39 µM | 0.962 | > 20 µM | 0.951 | > 5.12 µM
DMS-79 (small cell lung carcinoma, suspension) | 0.655 | 3.62 µM | 0.961 | > 20 µM | 0.964 | > 5.12 µM
JHH-2 (liver, adherent) | 0.545 | 1.68 µM | 0.98 | > 20 µM | 0.975 | > 5.12 µM
OVMIU (ovary, adherent) | 0.485 | 1.13 µM | 0.942 | > 20 µM | 0.963 | > 5.12 µM
COLO-680N (oesophagus, adherent) | 0.983 | > 20 µM | 0.986 | > 20 µM | 0.923 | > 5.12 µM
HT-1080 (fibrosarcoma, adherent) | 0.629 | 2.72 µM | 0.989 | > 20 µM | 0.988 | > 5.12 µM

Cell Line | AUC [1] | IC50 [1] | AUC [2] | IC50 [2] | AUC [3] | IC50 [3]
UACC-257 (melanoma, adherent) | 0.508 | 1.32 µM | 0.849 | > 20 µM | 0.979 | > 5.12 µM
H2373 (mesothelioma, adherent) | 0.597 | 2.48 µM | 0.972 | > 20 µM | 0.974 | > 5.12 µM
MG-63 (osteosarcoma, adherent) | 0.982 | > 20 µM | 0.981 | > 20 µM | 0.984 | > 5.12 µM
SW1116 (large intestine, adherent) | 0.748 | 8.56 µM | 0.984 | > 20 µM | 0.986 | > 5.12 µM
UMC-11 (lung carcinoid, adherent) | 0.412 | 0.738 µM | 0.965 | > 20 µM | 0.989 | > 5.12 µM
ROS-50 (B-cell leukaemia, suspension) | 0.593 | 2.42 µM | 0.878 | > 20 µM | 0.967 | > 5.12 µM
HD-MY-Z (Hodgkin lymphoma, adherent) | 0.49 | 1.17 µM | 0.886 | > 20 µM | 0.968 | > 5.12 µM
BICR78 (head and neck, adherent) | 0.548 | 1.72 µM | 0.981 | > 20 µM | 0.973 | > 5.12 µM
JAR (urogenital system, adherent) | 0.578 | 2.03 µM | 0.98 | > 20 µM | 0.988 | > 5.12 µM
U-698-M (B-cell leukaemia, suspension) | 0.54 | 1.61 µM | 0.867 | 18 µM | 0.93 | > 5.12 µM
NCI-H1734 (lung adenocarcinoma, adherent) | 0.547 | 1.7 µM | 0.98 | > 20 µM | 0.96 | > 5.12 µM
BFTC-905 (bladder, adherent) | 0.608 | 2.37 µM | 0.99 | > 20 µM | 0.99 | > 5.12 µM
BPH-1 (prostate, adherent) | 0.364 | 0.503 µM | 0.982 | > 20 µM | 0.927 | > 5.12 µM
NCI-H2170 (lung squamous cell carcinoma, adherent) | 0.617 | 2.67 µM | 0.984 | > 20 µM | 0.977 | > 5.12 µM
NCI-H1573 (lung adenocarcinoma, adherent) | 0.694 | 4.29 µM | 0.986 | > 20 µM | 0.991 | > 5.12 µM
SF539 (glioma, adherent) | 0.528 | 1.48 µM | 0.957 | > 20 µM | 0.988 | > 5.12 µM
Ca9-22 (head and neck, adherent) | 0.347 | 0.487 µM | 0.972 | > 20 µM | 0.984 | > 5.12 µM
BxPC-3 (pancreas, adherent) | 0.582 | 2.16 µM | 0.975 | > 20 µM | 0.975 | > 5.12 µM
C3A (liver, adherent) | 0.813 | 11.4 µM | 0.988 | > 20 µM | 0.988 | > 5.12 µM

A lower IC50 marks a more sensitive line; a fit beyond the top or the lowest dose is shown as a bound at that dose. The AUC spans the tested range (256-fold, ending at the top dose) of the same fit; it is 1 without any effect and falls as sensitivity rises. An inferred top dose was derived from the fitted curves, not read from the paper.
